# Measurements as given in PubChem BioAssay AID489012 (National Center for Advancing Translational Sciences (NCATS), 2010).
# Inconclusive means that the source gave no clear call. Such entries were picked first, then a sample of the others. Where the call is inconclusive, the potency comes from a doubtful curve fit. Calls of active or inactive are those of the source. The call rests on the fitted dose curve; in most records, active means well fitted activation curve with a large enough effect; inconclusive means small, poorly fitted or top-dose-only effect; inactive means no such curve, though single readings can be large or run the other way.
# Molecular target: Relaxin receptor 1 (Homo sapiens) (UniProt Q9HBX9)
# UniProt Q9HBX9, sequence (Q9HBX9 whole entry, looked up): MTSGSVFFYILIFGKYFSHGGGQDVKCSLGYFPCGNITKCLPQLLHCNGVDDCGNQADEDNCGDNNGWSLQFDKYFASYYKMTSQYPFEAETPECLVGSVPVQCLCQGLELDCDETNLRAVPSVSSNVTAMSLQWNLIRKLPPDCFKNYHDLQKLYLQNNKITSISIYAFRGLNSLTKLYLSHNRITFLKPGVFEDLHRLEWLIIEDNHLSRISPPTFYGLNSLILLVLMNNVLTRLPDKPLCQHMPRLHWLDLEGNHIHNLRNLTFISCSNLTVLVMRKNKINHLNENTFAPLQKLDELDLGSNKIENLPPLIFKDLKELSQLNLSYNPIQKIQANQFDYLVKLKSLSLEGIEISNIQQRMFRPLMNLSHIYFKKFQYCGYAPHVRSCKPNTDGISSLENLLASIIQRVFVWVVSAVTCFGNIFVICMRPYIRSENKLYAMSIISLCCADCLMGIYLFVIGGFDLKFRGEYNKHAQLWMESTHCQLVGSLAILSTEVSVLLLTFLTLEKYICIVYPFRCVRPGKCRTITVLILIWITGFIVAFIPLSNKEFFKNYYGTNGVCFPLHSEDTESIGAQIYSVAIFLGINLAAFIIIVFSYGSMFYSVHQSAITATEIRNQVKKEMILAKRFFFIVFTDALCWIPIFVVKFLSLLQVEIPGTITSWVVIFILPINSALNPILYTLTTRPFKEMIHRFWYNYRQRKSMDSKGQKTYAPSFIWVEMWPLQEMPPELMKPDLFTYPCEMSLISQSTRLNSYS
# Assay: qHTS Assay for Agonists of the Relaxin Receptor RXFP1: RXFP1 Hit Validation; further: nearly all actives have a fitted effect of over 65% in size;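 on activation: cAMP rise lowers the TR-FRET signal in lysed cells with PDE4 inhibitor present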
# Conditions: HEK293T-RXFP1 cAMP TR-FRET, 30 min; series mostly up to 115 µM
# Potency means the concentration at half of the fitted maximal effect; tags describe the fitted curve by direction and shape.
row,Compound,Potency
1,COc1ccc(NC(=O)CCCc2nnc3n(C)c(=O)c4sccc4n23)cc1,"inconclusive: 38.9 µM [activator, partial curve]"
2,Cc1nn(CCCC(=O)NCCc2ccccc2)c(=O)c2nccn12,"inconclusive: 43.6 µM [activator, partial curve]"
3,CCN1CCN(C(=O)CCc2nnc3ccc(N4CCN(c5cccc(OC)c5)CC4)nn23)CC1,"inconclusive: 38.9 µM [activator, partial curve]"
4,CCOC(=O)CSc1nc(=O)n2cc(C)ccc2n1,inactive
5,COc1cccc(/C=N/NC(=O)Cn2cnc3c2c(=O)n(C)c(=O)n3C)c1,"inconclusive: 43.6 µM [activator, partial curve]"
6,O=C(O)c1ccc(N2C(=O)c3cccc4cccc(c34)C2=O)cc1,"inconclusive: 59.5 µM [activator, single point]"
7,Cc1noc(NS(=O)(=O)c2ccc(N3Cc4ccccc4C3=O)cc2)c1C,active: 11.9 µM
8,CN(C)S(=O)(=O)c1cccc(COc2ncnc3c(Cl)cc(Cl)cc23)c1,"inconclusive: 24.5 µM [activator, partial curve]"
9,COc1ccc(-n2nc(C(=O)NCC(=O)NCCCN3CCOCC3)c3ccccc3c2=O)cc1Cl,"inconclusive: 34.6 µM [activator, partial curve]"
10,Cn1c2c(c(=O)n3ncnc13)CCCC2,inactive
11,O=C(Cn1cnc2c(nnn2-c2ccc(F)cc2)c1=O)NCC1CCCO1 (stereo unspecified),active: 8.7 µM
12,O=C(NCCc1nnc2ccc(SCC(=O)N3CCCC3)nn12)c1ccc(F)cc1,"inconclusive: 38.9 µM [activator, partial curve]"
13,CCCn1c(SCC(=O)Nc2ccc(NC(=O)CC)cc2)nc2c1c(=O)n(C)c(=O)n2C,"inconclusive: 38.9 µM [activator, partial curve]"
14,Cn1cnnc1SCC(=O)Nc1cc(S(=O)(=O)N2CCCCC2)ccc1Cl,"inconclusive: 17.3 µM [activator, partial curve]"
15,Cc1nn(CCCC(=O)NCc2ccccc2)c(=O)c2nccn12,"inconclusive: 38.9 µM [activator, partial curve]"
16,O=c1nc2ccccn2c2ccc(S(=O)(=O)N3CCCCC3)cc12,"inconclusive: 43.6 µM [activator, partial curve]"
17,O=C(O)c1cc(-c2ccco2)nc2ccc(Br)cc12,active: 19.4 µM
18,O=C(NN1C(=O)c2ccccc2NC1c1ccc([N+](=O)[O-])o1)c1ccc([N+](=O)[O-])cc1 (stereo unspecified),"inconclusive: 24.5 µM [activator, partial curve]"
19,S=c1nc[nH]c2c1[nH]c1ccc(Cl)cc12,"inconclusive: 2.75 µM [activator, full curve]"
20,O=C(Oc1ccccc1)Oc1ccc2c(c1)oc(=O)c1ccccc12,active: 21.8 µM
21,CCOC(=O)CCCCC(=O)c1[nH]c(=O)[nH]c1CSc1nnc2c3cc(Br)ccc3n(C)c2n1,"inconclusive: 13.8 µM [activator, partial curve]"
22,O=C(O)c1ccc(CN2C(=O)c3ccc(C(=O)O)cc3C2=O)cc1,inactive
23,NC(=S)c1cc2ccc(O)cc2oc1=O,active: 7.74 µM
24,CCOC(=O)/C(C#N)=C/c1c(N2CCN(CC)CC2)nc2c(C)cccn2c1=O,inactive
25,CCOC(=O)C1CCN(C(=O)Cn2c(=O)c3cccn3c3cccnc32)CC1,"inconclusive: 34.6 µM [activator, partial curve]"
26,COc1ccc(CC(=O)N/N=C/c2cccnc2)cc1OC,inactive
